Measured values from PubChem BioAssay (NCI).
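Interpolation was linear, between the two tested concentrations surrounding the appropriate level; five concentrations were tested over 48 hours in 96-well plates. GI50 = concentration required for 50% inhibition of growth. TGI is the concentration that stops growth completely.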

System: NCI-H322M lung
Experiment: NCI-60 cell line screen, 48 h

| SMILES | TGI [µM] | GI50 [µM] |
| --- | --- | --- |
| COC(=O)c1cc(/C=C/C(=O)Cc2ccccc2)cn1S(=O)(=O)c1ccccc1 | > 100 |  |
| COc1cccc2nc(Nc3cccc(NC(=O)c4ccc(N5CCN(C)CC5)c(C(F)(F)F)c4)c3)ccc12 | 6.15 | 1.65 |
| O=C1NC(c2ccc3ccccc3c2)Nc2ccccc21 (configuration not stated) | > 100 |  |
| CC(C)n1cc(-c2ccc3c(c2)N(C)CC3)c2c(NS(=O)(=O)c3ccn(C)n3)ccnc21 | > 100 | 95.9 |
| O=S(=O)(NCCNc1nccc(-c2c(-c3ccc(F)cc3)nc3sccn23)n1)c1ccc(O)cc1 | 51.8 | 5.47 |
| Cn1c2c(c3ccccc31)CCN1C[C@@H]3CCCC[C@H]3C[C@@H]21 | > 100 | 3.43 |
| COc1ccc(/C=C2/SC(=Nc3ccccc3)N(NC(=O)Cc3ccccc3)C2=O)cc1 | > 100 |  |
| CN1CCCS/C1=C1/SC(=S)N(c2ccccc2)C1=O | > 100 |  |
| COc1nc(=O)[nH]c2c1C(c1ccc([N+](=O)[O-])cc1)c1c(OC)nc(=O)[nH]c1O2 | > 100 |  |
| CC(=Nc1ccc(Cl)cc1)c1ccncc1 | > 100 |  |
| CC1=CC2(C)C=C[C@@H]1C(=O)[C@@]1(C)CC[C@@](O)(C(C)C)[C@H]1CC2 | 43.8 |  |
| Cc1cc(NS(=O)(=O)c2ccc(NO)cc2)no1 | > 100 |  |
| COc1cccc(CCn2c(N)c(-c3cc(Cl)cc(Cl)c3)c3ccc([N+](=O)[O-])cc3c2=O)c1 | > 60.4 |  |
| Nc1c(F)c(F)c2c(c1F)N(CCCCCl)c1ccccc1S2 | > 100 |  |
| COc1cc(/C=C2\CC3C4CCC5=CC(=O)CC[C@]5(C)C4CC[C@]3(C)C2=O)ccc1OCCN1CCCC1 (some centres not stated) | 2.38 | 0.633 |
| Cc1c(-c2coc(-c3ccc([N+](=O)[O-])cc3)n2)c(=O)n(-c2ccccc2)n1C | > 100 |  |
| NNC(=O)/C(NC(=O)c1ccccc1)=C(\N)c1cccc([N+](=O)[O-])c1 | > 100 |  |
| CC/C(Cl)=N\OC(=O)Nc1ccc(F)c(Cl)c1 | 31.6 |  |
| O=C(c1ccccc1)n1cc(/C=C/[N+](=O)[O-])c2ccccc21 | > 100 |  |
| Cc1cn(C2CC(O)C(Cn3nncc3Cn3cnc4c(N)ncnc43)O2)c(=O)[nH]c1=O (configuration not stated) | > 100 |  |

| SMILES | TGI [µM] | GI50 [µM] |
| --- | --- | --- |
| CC1=C2CC[C@@]3(C)C(=CCC3O)C2(C)CCC1=O (some centres not stated) | > 100 |  |
| CC(C)N(CC(=O)O)CC(=O)O | > 100 |  |
| COC(=O)C1C(C(=O)O)C2(c3ccccc3)C(=O)C1(c1ccccc1)C(c1ccc(OC)cc1)=C2c1ccc(OC)cc1 (configuration not stated) | 81.4 | 30.9 |
| O=C(Nn1c(-c2ccccc2)nc2ccccc2c1=O)c1cccc([N+](=O)[O-])c1 | > 100 |  |
| COc1ccc2nc3ccc(OC)cc3c(S(=O)Cc3ccccc3)c2c1 (configuration not stated) | 36.9 |  |
| CCOC(=O)C#Cc1cccc(C#CC(=O)OCC)c1 | > 35.1 |  |
| O=C1C(Cl)C(c2ccc(O)cc2)N1n1cnc2ccccc2c1=O (configuration not stated) | > 100 |  |
| Cc1c2c(n3c(nc4ccccc43)c1C#N)N(c1ccc(F)cc1)CC2 | > 100 |  |
| CC(C)[C@@]12C[C@@H](OC(=O)COC(=O)c3ccccc3)[C@@](C)(O1)[C@@H]1CC[C@@H](C)[C@H]1[C@@H]2OC(=O)/C=C/c1ccccc1 | > 100 | > 100 |
| COc1ccccc1CNCCCN1C(=O)c2ccc3c4c(ccc(c24)C1=O)C(=O)N(CCCNCCCCNCCCN)C3=O | 6.63 | 1.2 |
| CCN1C(=O)/C(=c2\sc3n(c2=O)C2C(NN=3)N(CC)C(=O)N2CC)c2ccccc21 (configuration not stated) | > 100 | 4.73 |
| CC(=O)OCc1nnn2c1C(OC(C)=O)CC2 (configuration not stated) | > 100 |  |
| COC1(OC)CCN(Cc2ccccc2)C1=O | > 78.4 |  |
| CC(C)CC(N)C(=O)NC(CNC(CCC(N)=O)C(=O)NC(CC(C)C)C(=O)NC(CC(C)C)C(=O)O)Cc1ccc2ccccc2c1 (configuration not stated) | > 10 |  |
| CCOC(=O)CCc1c(C)c2c(OC)cc(OC)cc2oc1=O | > 100 |  |
| Cc1csc2nc(-c3cc([N+](=O)[O-])c(Cl)cc3Cl)c(/C=N/N=C(N)N)n12 | 30 |  |
| CC[O-].CC[O-].O=C1C=C([O-])C(=O)c2ccccc21.O=C1C=C([O-])C(=O)c2ccccc21.[Ti+4] | > 66.2 | 16.1 |
| CC(=O)Oc1ccc(C2OC(c3ccc4ccccc4c3OC(C)=O)=NN2C(C)=O)c(OC(C)=O)c1 (configuration not stated) | 28.4 | 0.295 |
| C/C=C1\Oc2ccc(OC)cc2S1(=O)=O | > 100 |  |
| O=C(O)C1=Cc2cccc3cccc(c23)C1=O | > 100 |  |

| SMILES | TGI [µM] | GI50 [µM] |
| --- | --- | --- |
| Nc1ncnc2c1ccn2CC#CCO | > 100 |  |
| CCCCCc1cc(/C=C2/N=C(c3ccc[nH]3)C=C2OC)[nH]c1C | 1.29 |  |
| C=CC(C)(C)NC(C(=O)N1CCC[C@H]1c1nc(-c2nc(C(=O)OCC=C(C)C)c(C)o2)c(C)o1)C(C)C (some centres not stated) | > 100 |  |
| c1cc[n+](Cc2c3ccccc3cc3c2ccc2ccccc23)cc1 | 19 | 4.69 |
| O=C(/C=C(/C=C/c1cccc2[nH]ccc12)OB(F)F)/C=C/c1cccc2[nH]ccc12 | 4.89 | 1.93 |
| CCn1c2ccccc2c2ccc(C3C4C(=O)N(c5cccc6ccccc56)C(=O)C4ON3C(C(N)=O)c3ccccc3)cc21 (configuration not stated) | > 25 |  |
| CCCCC(CC)C(=O)Oc1ccc(C(=O)c2ccccc2)c(O)c1 (configuration not stated) | > 100 |  |
| CCC1(c2ccc(OC)c(OC)c2)CCN(S(=O)(=O)c2ccc(C)cc2)C1 (configuration not stated) | > 100 |  |
| CCN(N=O)C1C2(CCCC2)NC(=O)C12CCCC2 (configuration not stated) | > 100 |  |
| CCOC(=O)c1c(C)n([O-])c2cc(F)c(F)cc2[n+]1=O | 4.19 | 2.03 |
| C[C@@]12CC[C@@H](O)C[C@@H]1CC[C@H]1[C@H]2CC[C@@]2(C)[C@H](c3ccc(=O)oc3)CC[C@@]12O | 0.0649 | < 0.01 |
| CCOC(=O)/C(=C\c1c[nH]c2ccccc12)P(=O)(OCC)OCC | > 100 |  |
| c1ccc(-c2cc3nc4ccccc4nc3cc(-c3ccccc3)[nH][nH]2)cc1 | > 100 |  |
| CCCCCCCCCN=C(N)c1ccc(N2CCN(c3ccc(C(N)=NCCCCCCCCC)cc3)CC2)cc1 | 8.75 | 2.74 |
| NC(=O)C1=C(O)[C@@]2(O)C(=O)C3=C(O)c4c(O)cccc4CC3C[C@H]2CC1=O (some centres not stated) | 13.1 |  |
| O=C(O)C1=C(CO)Oc2cc3c(cc2C1c1ccc2c(c1)OCO2)OCO3 (configuration not stated) | > 100 |  |
| Cc1cc(-c2nc3cc(F)ccc3s2)ccc1N | > 100 |  |
| CC[C@]12C=CCN3CC[C@@]4(c5ccc(OC)cc5N(C)[C@H]4[C@@](O)(C(=O)OC)[C@@H]1OC(=O)CCC(=O)O[C@H]1CC[C@H]4[C@@H]5CCC6=CC(=O)CC[C@@H]6[C@H]5CC[C@]14C)[C@@H]32 | > 50 | 2.74 |
| CCOC(=O)C1=C(C)NC2SC(=O)/C(=C\c3cccc(Cl)c3)N2C1c1ccccc1 (configuration not stated) | > 100 | > 100 |
